Source: the supplement of paper PMC6089552
Screen size: about 3,200 compounds; about 300 (9.4%) showed activity. Only a part is listed here, and it is no random draw.

Test system: A673/TR/shEF
Assay: cell viability (LOESS-normalised, relative to median of negative controls) (log2 ratio); higher = more viable cells (less compound effect), active = hit call of the paper (over 3 MAD below the median)
Details: treatment time: 72 h
Method in brief: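 A673/TR/shEF Ewing sarcoma cells (1,500 per well, 384-well plates) were grown with or without doxycycline to induce EWS-FLI1 shRNA knockdown, starting 24 h before compounds. Library compounds at two or more concentrations, with DMSO controls, were added for three days. Cell viability was read by CellTiter-Glo luminescence on an Envision reader, then LOESS-corrected per plate, divided by the median of negative controls and log2-transformed. Hits were wells at least three median absolute deviations from the median of all screened wells.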

[1] = 0.25 µM, library screen: screen1, EWS-FLI1 expression: high (no doxycycline)
[2] = 0.25 µM, library screen: screen1, EWS-FLI1 expression: low (doxycycline-induced shRNA knockdown)
[3] = 2.5 µM, library screen: screen1, EWS-FLI1 expression: high (no doxycycline)
[4] = 2.5 µM, library screen: screen1, EWS-FLI1 expression: low (doxycycline-induced shRNA knockdown)
[5] = 0.25 µM, library screen: screen2, EWS-FLI1 expression: high (no doxycycline)
[6] = 0.25 µM, library screen: screen2, EWS-FLI1 expression: low (doxycycline-induced shRNA knockdown)
[7] = 2.5 µM, library screen: screen2, EWS-FLI1 expression: high (no doxycycline)
[8] = 2.5 µM, library screen: screen2, EWS-FLI1 expression: low (doxycycline-induced shRNA knockdown)
[9] = 0.103 µM, library screen: screen3, EWS-FLI1 expression: high (no doxycycline)
[10] = 0.103 µM, library screen: screen3, EWS-FLI1 expression: low (doxycycline-induced shRNA knockdown)
[11] = 0.308 µM, library screen: screen3, EWS-FLI1 expression: high (no doxycycline)
[12] = 0.308 µM, library screen: screen3, EWS-FLI1 expression: low (doxycycline-induced shRNA knockdown)
[13] = 0.926 µM, library screen: screen3, EWS-FLI1 expression: high (no doxycycline)
[14] = 0.926 µM, library screen: screen3, EWS-FLI1 expression: low (doxycycline-induced shRNA knockdown)
[15] = 2.8 µM, library screen: screen3, EWS-FLI1 expression: high (no doxycycline)
[16] = 2.8 µM, library screen: screen3, EWS-FLI1 expression: low (doxycycline-induced shRNA knockdown)
[17] = 8.3 µM, library screen: screen3, EWS-FLI1 expression: high (no doxycycline)
[18] = 8.3 µM, library screen: screen3, EWS-FLI1 expression: low (doxycycline-induced shRNA knockdown)
[19] = 25 µM, library screen: screen3, EWS-FLI1 expression: high (no doxycycline)
[20] = 25 µM, library screen: screen3, EWS-FLI1 expression: low (doxycycline-induced shRNA knockdown)

Measured: cell viability (log2)

COc1cc(N)c(Cl)cc1C(=O)NC1CCN(Cc2ccccc2)CC1
inactive: [1] 0.0541 | [2] -0.0718 | [3] 0.0979 | [4] -0.0595

OC[C@@H](O)[C@@H](O)C(O)[C@H](O)[C@@H](O)CO (stereo partly specified)
inactive: [1] 0.0348 | [2] 0.0046 | [3] 0.138 | [4] 0.018

CC(=O)O[C@H]1CC[C@]2(C)[C@H]3CC=C4[C@@H]5CC(C)(C)CC[C@]5(C(=O)O)CC[C@@]4(C)[C@]3(C)CC[C@H]2C1(C)C
inactive: [1] 0.0325 | [2] 0.0553 | [3] 0.0391 | [4] 0.0458

COc1ccc(CN2CCN(Cc3ccccc3F)CC2)c(OC)c1
inactive: [1] 0.164 | [2] 0.0508 | [3] 0.0471 | [4] 0.126

NC(N)=NCCN1CCCCCCC1
inactive: [1] 0.086 | [2] 0.0896 | [3] 0.182 | [4] 0.105

O=C(NCC1CCCCN1)c1cc(OCC(F)(F)F)ccc1OCC(F)(F)F (stereo unspecified)
inactive: [5] 0.161 | [6] 0.0457 | [7] 0.121 | [8] 0.0811

CC1CCc2cc(F)cc3c(=O)c(C(=O)O)cn1c23 (stereo unspecified)
inactive: [1] 0.0685 | [2] 0.0111 | [3] 0.214 | [4] 0.0852

COc1cc2c(cc1OC)-c1c(oc3cc(O)cc(O)c3c1=O)CO2
inactive: [1] 0.0542 | [2] 0.053 | [3] 0.119 | [4] 0.146

C=C[C@H]1CN2CCC1C[C@@H]2[C@@H](O)c1ccnc2ccc(OC)cc12 (stereo partly specified)
inactive: [1] 0.0704 | [2] 0.101 | [5] 0.217 | [6] 0.0627 | [3] 0.154 | [4] 0.184 | [7] 0.157 | [8] 0.108

CCCOc1ccc2nc(NC(=O)OC)[nH]c2c1
inactive: [1] 0.0532 | [2] 0.106 | [4] -0.0137
active: [3] -0.659

CCCCOc1ccc(OCCCN2CCOCC2)cc1
inactive: [1] 0.172 | [2] 0.0279 | [3] 0.124 | [4] 0.0578

COc1cc(CN2CCN(Cc3cccc(OC)c3OC)CC2)c([N+](=O)[O-])cc1OC
inactive: [1] 0.00876 | [2] 0.0541 | [3] 0.119 | [4] -0.0278

COc1c(O)cc2c(c1O)[C@@H]1O[C@H](CO)[C@@H](O)[C@H](O)[C@H]1OC2=O
inactive: [1] 0.0447 | [2] 0.023 | [3] 0.0424 | [4] 0.0844

CC(=O)Oc1cccc(C(=O)O)c1OC(C)=O
inactive: [1] -0.0535 | [2] 0.0969 | [3] 0.0401 | [4] 0.0587

CC1OC1P(=O)(O)O (stereo unspecified)
inactive: [1] 0.0804 | [2] 0.0996 | [5] 0.102 | [6] 0.038 | [3] 0.16 | [4] 0.0713 | [7] 0.045 | [8] 0.0792

Nc1cccc(-c2cc3c(Oc4cccc(O)c4)ncnc3[nH]2)c1
active: [19] -0.494 | [20] -0.321
inactive: [9] 0.136 | [10] 0.0102 | [11] 0.0422 | [12] 0.0346 | [13] 0.0247 | [14] 0.00411 | [15] -0.00369 | [16] 0.0285 | [17] -0.0241 | [18] 0.0796

COC(=O)[C@@H]1OC(=O)C2OC23[C@@]1(C)CCC1[C@]2(C)C(C[C@@H](O)[C@]13C)C(C)(C)[C@H](OC(C)=O)C[C@@H]2OC(C)=O (stereo partly specified)
inactive: [1] 0.0653 | [2] 0.123 | [3] 0.0967 | [4] 0.0969

COc1ccc(CCCOC(Cn2ccnc2)c2ccc(OC)cc2)cc1 (stereo unspecified)
inactive: [5] 0.147 | [6] -0.026 | [7] 0.177 | [8] 0.0168

COc1ccccc1OCCNCC(O)COc1cccc2[nH]c3ccccc3c12 (stereo unspecified)
inactive: [1] 0.0598 | [2] 0.0785 | [3] -0.00725 | [4] 0.114

COC(=O)Nc1ccc(S(=O)(=O)N2C(C)CCCC2C)cc1 (stereo unspecified)
inactive: [1] 0.0592 | [2] 0.103 | [3] 0.0767 | [4] 0.0829

CC(C)c1nc(CN(C)C(=O)N[C@H](C(=O)N[C@@H](Cc2ccccc2)C[C@H](O)[C@H](Cc2ccccc2)NC(=O)OCc2cncs2)C(C)C)cs1
inactive: [9] 0.0232 | [10] 0.0233 | [11] 0.153 | [12] 0.109 | [13] 0.0131 | [14] 0.0345 | [15] 0.138 | [16] 0.0521 | [17] 0.0847 | [18] 0.0462 | [19] 0.0809 | [20] 0.0847

CCCOC(=O)c1c(-c2ccccc2)nc(CC)c(C(=O)SCC)c1CCC
inactive: [5] 0.156 | [6] 0.159 | [7] 0.133 | [8] 0.152

O=c1oc2cc3occc3cc2c2oc3cc4c(cc3c12)OCO4
inactive: [1] 0.103 | [2] -0.01 | [3] 0.0469 | [4] 0.0004

CCOc1nc2cccc(C(=O)OC(C)OC(=O)OC3CCCCC3)c2n1Cc1ccc(-c2ccccc2-c2nn[nH]n2)cc1 (stereo unspecified)
inactive: [9] -0.0598 | [10] 0.00554 | [11] 0.0406 | [12] 0.0035 | [13] -0.0442 | [14] 0.0408 | [15] -0.0362 | [16] 0.0242 | [17] -0.0149 | [18] -0.00871 | [19] 0.0372 | [20] -0.00417

O=c1cc(O)cc(/C=C/c2ccc(O)c(O)c2)o1
inactive: [5] 0.159 | [6] 0.05 | [7] 0.0405 | [8] 0.104

Nc1ccc(S(N)(=O)=O)cc1
inactive: [9] 0.0177 | [10] 0.0584 | [1] 0.0442 | [2] 0.18 | [11] 0.117 | [12] 0.121 | [13] 0.099 | [14] 0.105 | [3] 0.0879 | [4] 0.144 | [15] 0.109 | [16] 0.0891 | [17] 0.117 | [18] 0.0979 | [19] 0.0658 | [20] 0.0937

CCCCCCCCCCCCC(C(=O)O)C(C)C(=O)O (stereo unspecified)
inactive: [1] 0.000833 | [2] 0.0282 | [3] 0.0686 | [4] 0.041

Nc1ncnc2c1ncn2[C@H]1C[C@H](O)[C@@H](CO)O1
inactive: [1] 0.0888 | [2] 0.137 | [3] 0.0495 | [4] 0.162

CCN1CCC[C@H]1CNC(=O)c1cc(S(N)(=O)=O)ccc1OC
inactive: [5] 0.115 | [6] 0.0959 | [7] 0.195 | [8] 0.119

COc1ccccc1NC1CC(C)N(C(=O)c2ccc(C)cc2)c2c(C)cccc21 (stereo unspecified)
inactive: [1] 0.107 | [2] 0.0693 | [3] 0.128 | [4] 0.111

CCCCC#Cc1nc(N)c2ncn([C@@H]3O[C@H](C(=O)NCC)[C@@H](O)[C@H]3O)c2n1
inactive: [5] 0.0647 | [6] 0.00816 | [7] 0.102 | [8] 0.139

CC(CCc1ccc(O)cc1)NCCc1ccc(O)c(O)c1 (stereo unspecified)
inactive: [1] -0.00471 | [2] 0.0556 | [5] 0.224 | [6] 0.115 | [3] 0.0295 | [4] 0.169 | [7] 0.183 | [8] 0.131

N[C@@H](CCC(=O)N[C@@H](CSN=O)C(=O)NCC(=O)O)C(=O)O
inactive: [5] 0.12 | [6] 0.0819 | [7] 0.104 | [8] 0.0641

CCC(C)(C)c1ccc(CC(C)CN2C[C@@H](C)O[C@@H](C)C2)cc1 (stereo partly specified)
inactive: [9] 0.114 | [10] 0.0848 | [11] -0.00054 | [12] 0.0379 | [13] 0.0992 | [14] 0.056 | [15] 0.051 | [16] 0.121 | [17] 0.0993 | [18] 0.0696 | [19] 0.0674 | [20] 0.0662

CCOC(=O)c1ccc(C#Cc2ccc3c(c2)C(C)(C)CCS3)nc1
inactive: [9] 0.0442 | [10] -0.00419 | [11] 0.0366 | [12] 0.034 | [13] -0.019 | [14] 0.0293 | [15] -0.068 | [16] 0.0113 | [17] -0.0101 | [18] 0.0754 | [19] 0.0107 | [20] 0.0951

CC[C@]12CCCN3CCc4c(n(c5ccccc45)[C@@](O)(C(=O)OC)C1)[C@@H]32
inactive: [1] 0.0647 | [2] 0.0435 | [3] 0.103 | [4] 0.075

COc1ccc(CN2CCN(Cc3ccc(C)cc3)CC2)c(OC)c1OC
inactive: [1] 0.0669 | [2] 0.0696 | [3] 0.138 | [4] 0.00566

COCCCN1C(=O)C(=Cc2sccc2C)SC1=S
inactive: [1] 0.112 | [2] 0.0557 | [3] 0.117 | [4] -0.0013

O=c1[nH]c(=O)n([C@H]2C[C@H](O)[C@@H](CO)O2)cc1/C=C/Br
inactive: [5] 0.184 | [6] 0.138 | [7] 0.072 | [8] 0.108

Cn1c(=O)c2c(ncn2CC(O)CO)n(C)c1=O (stereo unspecified)
inactive: [9] 0.0165 | [10] 0.0126 | [1] 0.131 | [2] 0.16 | [11] 0.00785 | [12] 0.0143 | [13] 0.0371 | [14] 0.0614 | [3] 0.188 | [4] 0.133 | [15] 0.0324 | [16] 0.0246 | [17] 0.104 | [18] 0.0719 | [19] 0.175 | [20] 0.0892
